Source: article PMC4336329 (PLoS ONE, 2015)
Among all 310,000 compounds or so, about 14,000 (4.5%) showed an effect of 50% or more. The effect is printed as a negative number. Some of the results follow.

Molecular target: human ether-à-go-go-related gene (hERG) potassium channel (human, UniProt Q12809)
Experiment: primary screen, population patch clamp on CHO cells stably expressing hERG
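Note: peak tail current of the secondary pulse compared with the same well before compound.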

Sequence of human ether-à-go-go-related gene (hERG) potassium channel (Q12809 whole entry, looked up): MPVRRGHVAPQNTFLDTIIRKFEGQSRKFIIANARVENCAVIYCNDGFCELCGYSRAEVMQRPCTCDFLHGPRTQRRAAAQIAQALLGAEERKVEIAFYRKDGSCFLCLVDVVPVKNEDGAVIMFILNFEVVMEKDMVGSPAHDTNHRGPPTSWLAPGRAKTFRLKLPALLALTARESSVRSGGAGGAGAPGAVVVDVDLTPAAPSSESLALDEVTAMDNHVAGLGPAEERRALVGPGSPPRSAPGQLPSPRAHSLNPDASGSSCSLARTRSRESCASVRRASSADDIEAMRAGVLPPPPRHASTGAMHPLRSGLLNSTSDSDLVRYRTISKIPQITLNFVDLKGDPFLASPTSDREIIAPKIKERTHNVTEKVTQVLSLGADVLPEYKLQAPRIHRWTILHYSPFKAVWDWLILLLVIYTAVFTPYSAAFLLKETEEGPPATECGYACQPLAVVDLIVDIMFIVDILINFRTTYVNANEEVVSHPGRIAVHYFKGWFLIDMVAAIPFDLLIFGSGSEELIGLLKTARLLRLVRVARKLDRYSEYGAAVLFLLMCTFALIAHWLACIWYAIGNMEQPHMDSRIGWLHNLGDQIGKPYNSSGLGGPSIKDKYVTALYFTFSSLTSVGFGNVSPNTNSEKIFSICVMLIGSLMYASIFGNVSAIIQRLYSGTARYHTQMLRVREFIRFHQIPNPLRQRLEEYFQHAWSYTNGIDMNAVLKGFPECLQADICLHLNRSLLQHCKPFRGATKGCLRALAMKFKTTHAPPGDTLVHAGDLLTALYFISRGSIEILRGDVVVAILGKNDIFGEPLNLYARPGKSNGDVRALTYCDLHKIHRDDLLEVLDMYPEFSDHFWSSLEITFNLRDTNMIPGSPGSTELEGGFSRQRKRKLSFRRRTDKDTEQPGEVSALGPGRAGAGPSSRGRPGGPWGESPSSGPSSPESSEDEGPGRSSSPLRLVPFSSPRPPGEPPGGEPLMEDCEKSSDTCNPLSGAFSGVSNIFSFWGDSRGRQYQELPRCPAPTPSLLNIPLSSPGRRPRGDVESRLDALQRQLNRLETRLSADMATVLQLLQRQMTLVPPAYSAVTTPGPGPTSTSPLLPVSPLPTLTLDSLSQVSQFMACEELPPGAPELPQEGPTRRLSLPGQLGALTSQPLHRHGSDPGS

| SMILES | hERG current change (%, negative = inhibition) at 10uM |
| --- | --- |
| CCN(CC)Cc1c(C(=O)N/N=C/c2ccccn2)nnn1-c1nonc1N | -20.8% |
| CCNC(=O)NC(=O)C(C)OC(=O)c1cc(S(=O)(=O)N2CCCCCC2)ccc1OC (stereo not drawn) | -26.9% |
| NC(C(=O)O)C(c1ccccc1)C(F)F (stereo not drawn) | 17.2% |
| CSc1ccc(NC(=O)NCc2ccccc2)cc1 | 19% |
| CCCCNC(=O)CSc1nnc(NC(C)=O)s1 | -10.6% |
| CN1CCC(=C2c3ccccc3C(O)c3ccccc32)CC1 (stereo not drawn) | 1.49% |
| CCOc1ccc(CN(C)CC(=O)Nc2ccc(N3CCOCC3)cc2)cc1OC | -30% |
| CCOc1ccc(C2/C(=C(\O)c3ccc4c(c3)OCCO4)C(=O)C(=O)N2CCCN2CCOCC2)cc1OC (stereo not drawn) | 3.69% |
| CCCn1c(=O)[nH]c(=O)c2c(C(=O)OCC)cc(-c3cccs3)nc21 | -3.67% |
| CCOC(=O)c1ccc(NC(=O)COc2ccc(S(=O)(=O)NC(C)CC)cc2)cc1 (stereo not drawn) | 1.11% |
| O=S(=O)(c1ccc(N2CCN(Cc3ccc4c(c3)OCO4)CC2)nc1)N1CCOCC1 | -32.1% |
| Cc1cnc(C(=O)OCC(=O)NC2CCCC(C)C2C)cn1 (stereo not drawn) | 6.02% |
| COc1ccccc1NC(=O)/C(=C\c1cccs1)NC(=O)c1ccco1 | -18.1% |
| Cc1c(NC(=O)CCCCCN2C(=O)c3ccccc3C2=O)c(=O)n(-c2ccccc2)n1C | 10.7% |
| COC(=O)c1ccc(CN2CCN(C3CCCC3)C(CCO)C2)cc1 (stereo not drawn) | -32.2% |
| CC1(C)CC(=NOC(=O)c2ccccc2)CC(C)(C)N1O | 8.56% |
| Cc1ccc(N/C=C2\CCCCC2=O)c(C)c1 | -4.26% |
| CN1C2=CC=CC=CC2=[N+](C)C12C=CC(=[N+]([O-])[O-])C=C2[N+](=O)[O-] (stereo not drawn) | -5.86% |
| CC(=O)Nc1cccc(NC(=O)c2ccc(Br)cc2)c1 | 15.8% |
| Cn1c(=O)c2c(ncn2CC(=O)Nc2ccc(N3CCOCC3)cc2)n(C)c1=O | 15.4% |
| CC(C)CC(OC(=O)c1ccc(Cl)nc1)C(=O)NC1CCCC1 (stereo not drawn) | 13.8% |
| Cc1cccc(NC(=O)C2CCN(S(=O)(=O)c3c(C)[nH]c(=O)[nH]c3=O)CC2)c1 | -15.3% |

| SMILES | hERG current change (%, negative = inhibition) at 10uM |
| --- | --- |
| CCCNC(=S)N1CCC(NC(=O)Nc2ccc(C)cc2)CC1 | 14.7% |
| CCn1c(CCc2ccccc2)nc2ccccc21.Cl | -5.78% |
| Cc1nc(N/N=C/c2ccc(O)cc2O)cc(N2CCOCC2)n1 | -2.03% |
| O=c1cc(O)c2ccccc2n1Cc1ccccc1F | 7.81% |
| O=c1nccc(N/N=C/c2ccccc2O)[nH]1 | 17.5% |
| CCOc1ccc(CNC(=O)CCC(=O)N2Cc3ccccc3Oc3ncccc32)cc1 | -51.1% |
| CSCCC(NC(=O)COc1ccccc1)C(=O)N1CCCC(C)C1 (stereo not drawn) | 10.4% |
| CCOC(=O)c1c(-c2ccc(F)cc2)csc1NC(=O)CN1C(=O)NC2(CCCCC2C)C1=O (stereo not drawn) | 11.6% |
| CCN(CC(=O)Nc1ccc(NC(C)=O)cc1)C(=O)c1cccc(-n2cccc2)c1 | 0.603% |
| CN(C(=O)c1ccc2c(c1)OCO2)C1CCCCC1 | 19.2% |
| Cc1c(Cl)cccc1N1C(=O)CC(NNC(=O)c2cccs2)C1=O (stereo not drawn) | 6.66% |
| COC(=O)c1ccc(NC(=O)CS(=O)(=O)c2ccccc2)cc1 | 1.4% |
| Cc1c(Cl)cccc1NC(=O)COC(=O)Cn1cnc2c1c(=O)n(C)c(=O)n2C | 4.63% |
| CCCc1nc2cc3c(cc2[nH]1)n(C)c(=O)n3C.Cl | 9.08% |
| O=C(C[n+]1cccc2ccccc21)c1ccc(Br)cc1.[Br-] | -45.1% |
| COc1ccc2oc(=O)c(C(=O)Nc3cccc(C(C)=O)c3)cc2c1 | 17.3% |
| O=C(NCCN=C1NS(=O)(=O)c2ccccc21)c1ccncc1 | 7.39% |
| COC(=O)CCC(=O)NNC(=O)c1ccc(Br)cc1 | 6.12% |
| O=C(CSc1nc(-c2ccco2)cc(C(F)(F)F)n1)Nc1ccccc1C(F)(F)F | -2.76% |
| Cc1cccc(NC(=O)Cn2cccc2)c1 | -5.5% |
| COc1cc(-c2cc(C(=O)Nc3cccc(C(C)=O)c3)c3ccccc3n2)cc(OC)c1OC | 9.49% |
| Cl.O=C(c1ccc(NS(=O)(=O)c2cccs2)cc1)N1CCN(c2ccccc2Cl)CC1 | -20.6% |

| SMILES | hERG current change (%, negative = inhibition) at 10uM |
| --- | --- |
| CC(Oc1ccc(Cl)cc1Cl)C(=O)NNC(=O)c1ccncc1 (stereo not drawn) | -16.5% |
| CSc1cccc(NS(=O)(=O)c2ccccc2)c1 | 1.03% |
| CC(CNC(=O)COC(=O)c1ccco1)c1ccccc1 (stereo not drawn) | -12.1% |
| COc1ccc(S(=O)(=O)N2CCCOC2CNC(=O)C(=O)NCCCN2CCOCC2)cc1C (stereo not drawn) | -2.43% |
| Cc1ccccc1-n1c(C)nnc1SCC(=O)NNC(=O)c1ccccc1 | 5.31% |
| CSCCC(NC(=O)c1ccc([N+](=O)[O-])cc1Cl)C(=O)OCC(=O)NCC(F)(F)F (stereo not drawn) | -16.7% |
| O=C(N/N=C/c1c[nH]c2ccccc12)c1ccc(Br)cc1 | -9.13% |
| CC1CCN(C(=O)CSc2nnc(Cc3cc(=O)[nH]c(=O)[nH]3)n2-c2ccc(Cl)cc2)CC1 | 1.16% |
| COc1cccc(N(C(=O)c2sc(C)nc2C)C(C(=O)NCC2CCCO2)c2ccccc2)c1 (stereo not drawn) | -8.87% |
| COc1ccc(/C=C2\SC(=S)N(CCC(=O)N3CCCCC3CCO)C2=O)cc1 (stereo not drawn) | 20% |
| CC(C)c1ccc(OCC(=O)N2CCc3ccccc3C2)cc1 | 3.06% |
| COC(=O)COc1ccc(-c2nccc(-c3ccc(Br)cc3)n2)cc1 | -4.37% |
| CCOC(=O)N1CCN(S(=O)(=O)Cc2ccccc2)CC1 | 15.5% |
| CSc1nncc(-c2ccccc2)n1 | -0.169% |
| CCN(Cc1ccc(OC)c(F)c1)C(=O)/C=C/c1ccc(S(=O)(=O)N2CCOCC2)cc1 | -18.3% |
| COc1cc(C(=O)OCC(=O)Nc2cccc(S(=O)(=O)N3CCOCC3)c2)ccc1OCC(C)C | 18.3% |
| O=S(=O)(NCCc1ccc2c(c1)OCCO2)c1cccs1 | -1.31% |
| COc1cccc(CN2C(=O)[C@@H]3Cc4c([nH]c5ccccc45)C(C)(C)N3C2=O)c1 | -3.35% |
| C/C(=N\NC(=S)NC1CCCCC1)c1c(F)cccc1F | -35% |
| Oc1c(C=C2N=c3ccccc3=N2)sc(=S)n1C1CCCCC1 [17433500] | 6.8% |
| Cc1ccc(S(=O)(=O)N2CCC(C(=O)N[C@@H](C)C(=O)Nc3ccc4c(c3)OCO4)CC2)cc1 | -9.41% |
| NS(=O)(=O)c1cc(C(=O)Nc2ccc3c(c2)OCCCO3)ccc1Cl | 17.5% |

| SMILES | hERG current change (%, negative = inhibition) at 10uM |
| --- | --- |
| COc1cccc(C2CC(c3cccc(NS(C)(=O)=O)c3)=NN2C(=O)c2ccccc2)c1OC (stereo not drawn) | -40.5% |
| C=C1CCN([C@H](C(=O)NCc2ccccc2)C(C)C)S(=O)(=O)c2ccccc21 | 3.33% |
| O=C1C2CC=CCC2C(=O)N1c1ccc(Cc2ccncc2)cc1 (stereo not drawn) | -25.4% |
| CCN(C(=O)COC(=O)c1ccc2ccccc2c1)c1c(N)n(Cc2ccccc2)c(=O)[nH]c1=O | 14.1% |
| CC(C)CN(C(=O)COc1ccc(C(C)(C)C)cc1)C1CCS(=O)(=O)C1 (stereo not drawn) | -22.5% |
| COc1cc(/C=C(/NC(=O)c2ccccc2)C(=O)N2CCN(C)CC2)c([N+](=O)[O-])cc1OC | 9.52% |
| CCOC(=O)CNC(c1ccccc1)c1cc(Br)ccc1NC(=O)OCC (stereo not drawn) | 6.02% |
| COc1ccc(OC)c(NC(=O)CCC(=O)N(Cc2ccc(OC)c(OC)c2)c2nccs2)c1 | 16.2% |
| COc1ccccc1NC(=O)NCC(=O)Nc1c(C)cccc1C | 30.5% |
| CC1(C)Cc2c(C#N)c(SCCO)nc(N3CCOCC3)c2CO1 | 1.82% |
| CCOc1ccc2c(c1)nc(C)n2C | 11.7% |
| C[n+]1cn(Cc2cc(Cl)ccc2OC(F)F)c2ccccc21.[Br-] | 2.96% |
| COc1ccc(/C(C)=N/OC/C(O)=C(\C#N)c2nc3ccccc3[nH]2)cc1OC | -4.76% |
| CCOC(=O)CCCSc1nc2sc(C)c(C)c2c(=O)[nH]1 | 17% |
| CN1C(=O)C(C2c3ccccc3C(=O)N2Cc2ccccc2)C(=O)N(C)C1=O (stereo not drawn) | 3.38% |
| CCOc1ccccc1N1CCN(C(=O)c2cc(S(=O)(=O)N3CCCCC3)ccc2C)CC1 | -18.1% |
| COCCNC(=O)c1ccc(CS(=O)(=O)c2ccccc2C)o1 | 14.7% |
| O=Cc1coc2c(ccc3ccccc32)c1=O | -8.67% |
| COc1ccc(NC(=S)NCc2ccccc2)c(OC)c1 | 13.1% |
| O=C(NCC(c1ccco1)N1CCCC1)c1ccccc1Sc1ccc(C(F)(F)F)cc1[N+](=O)[O-] (stereo not drawn) | -55.4% |
| COc1cc(C(=O)N2CCNCC2)cc(OC)c1OC.O=C(O)C(F)(F)F | 20.9% |
